The supplement of paper PMC3694890
± gives the uncertainty stated by the source. The list shows a part of the results. A small y stands for phosphotyrosine.

What follows are binders tested against GRB2 (endogenous complexes from cell lysate), P62993 (assay: GRB2 complex binding differential signal (pY peptide minus Ala control peptide) (fluorescence intensity units); higher = stronger GRB2 complex binding). Conditions: MCF7.
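Also: phosphopeptide probes on the chip at 1–4 µM, lysate proteins bound in 20 mM Tris pH 7.0 buffer with 140 mM NaCl, 1% Triton X-100 and 5% glycerol.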

| Binder | GRB2 complex binding differential signal |
| --- | --- |
| yLKTKF [STAT3_705/A1] | 376 ± 250 |
| yAVPPP [BCAR1_410/A1] | 5290 ± 3000 |
| yAQVQR [TENC1_483/A1] | 2510 ± 370 |
| yTSSSG [TEC_519/A1] | 3120 ± 920 |
| yMDQAP [STAT5B_725/A1] | 1390 ± 3300 |
| yEPELA [SYK_323/A1] | 1090 ± 370 |
| yKAQTH [SYK_526/A1] | 2340 ± 540 |
| yYKFSS [SYK_546/A1] | 365 ± 300 |
| yQPGEN [SRC_530/A1] | 1030 ± 520 |
| yFTSTE [SRC_522/A1] | 417 ± 190 |
| yNMYPQ [STAT5B_740/A1] | -16400 ± 1800 |
| yDYESR [SRC_93/A1] | 282 ± 280 |
| yVTPIG [STAP2_310/A1] | 11000 ± 3900 |
| yYKAQT [SYK_525/A1] | 3660 ± 560 |
| yESPYA [SYK_348/A1] | 6870 ± 690 |
| ySFPKP [SYK_296/A1] | 5060 ± 760 |
| yENQDV [STAP2_322/A1] | 44400 ± 10000 |

| Binder | GRB2 complex binding differential signal |
| --- | --- |
| yIKTEL [STAT1_701/A1] | 754 ± 590 |
| yVKPQI [STAT5A_694/A1] | 17400 ± 3800 |
| yLKHRL [STAT2_690/A1] | 91.3 ± 300 |
| yGRFTI [SRC_439/A1] | 202 ± 280 |
| ySRVQY [BCAR3_212/A1] | 1920 ± 540 |
| yPQNPD [STAT5B_743/A1] | 485 ± 430 |
| yESFLE [STAP2_22/A1] | 342 ± 300 |
| yTEGAE [TBB6_Y106/A1] | 765 ± 360 |
| ySKYYT [STAT5B_679/A1] | 676 ± 350 |
| yADPEE [SYK_352/A1] | 2760 ± 250 |
| yVPSVF [STAT4_693/A1] | -1060 ± 730 |
| yDVPRE [BCAR1_387/A1] | 3090 ± 930 |
| ySPSSS [SRMS_380/A1] | -1410 ± 880 |
| yTMCPE [TENC1_770/A1] | 1320 ± 470 |
| yEKVLG [STAP2_250/A1] | 2050 ± 690 |
| yATQLQ [STAT5A_90/A1] | 1550 ± 1600 |

Same assay, conditions: MCF10A

| Binder | GRB2 complex binding differential signal |
| --- | --- |
| yLKTKF [STAT3_705/A1] | 125 ± 110 |
| yAVPPP [BCAR1_410/A1] | 3430 ± 590 |
| yAQVQR [TENC1_483/A1] | 1480 ± 350 |
| yTSSSG [TEC_519/A1] | 2620 ± 820 |
| yMDQAP [STAT5B_725/A1] | 1450 ± 680 |
| yEPELA [SYK_323/A1] | 643 ± 270 |
| yKAQTH [SYK_526/A1] | 3810 ± 390 |
| yYKFSS [SYK_546/A1] | -19.3 ± 190 |
| yQPGEN [SRC_530/A1] | 857 ± 730 |
| yFTSTE [SRC_522/A1] | 725 ± 180 |
| yNMYPQ [STAT5B_740/A1] | -4080 ± 960 |
| yDYESR [SRC_93/A1] | -115 ± 220 |
| yVTPIG [STAP2_310/A1] | 8280 ± 1900 |
| yYKAQT [SYK_525/A1] | 1580 ± 750 |
| yESPYA [SYK_348/A1] | 4030 ± 1000 |
| ySFPKP [SYK_296/A1] | 1610 ± 350 |
| yENQDV [STAP2_322/A1] | 8590 ± 3600 |

| Binder | GRB2 complex binding differential signal |
| --- | --- |
| yIKTEL [STAT1_701/A1] | 1210 ± 250 |
| yVKPQI [STAT5A_694/A1] | 14300 ± 1500 |
| yLKHRL [STAT2_690/A1] | 319 ± 270 |
| yGRFTI [SRC_439/A1] | 25.2 ± 190 |
| ySRVQY [BCAR3_212/A1] | 493 ± 300 |
| yPQNPD [STAT5B_743/A1] | 946 ± 610 |
| yESFLE [STAP2_22/A1] | 476 ± 210 |
| yTEGAE [TBB6_Y106/A1] | 247 ± 880 |
| ySKYYT [STAT5B_679/A1] | 340 ± 260 |
| yADPEE [SYK_352/A1] | 1850 ± 540 |
| yVPSVF [STAT4_693/A1] | 203 ± 180 |
| yDVPRE [BCAR1_387/A1] | 1270 ± 390 |
| ySPSSS [SRMS_380/A1] | 2270 ± 1100 |
| yTMCPE [TENC1_770/A1] | 203 ± 150 |
| yEKVLG [STAP2_250/A1] | 2730 ± 410 |
| yATQLQ [STAT5A_90/A1] | 1430 ± 360 |

Same assay, conditions: MDA-MB-231

| Binder | GRB2 complex binding differential signal |
| --- | --- |
| yLKTKF [STAT3_705/A1] | 571 ± 360 |
| yAVPPP [BCAR1_410/A1] | 2210 ± 850 |
| yAQVQR [TENC1_483/A1] | 465 ± 440 |
| yTSSSG [TEC_519/A1] | 1270 ± 310 |
| yMDQAP [STAT5B_725/A1] | 854 ± 320 |
| yEPELA [SYK_323/A1] | 1160 ± 360 |
| yKAQTH [SYK_526/A1] | 649 ± 440 |
| yYKFSS [SYK_546/A1] | 768 ± 280 |
| yQPGEN [SRC_530/A1] | 546 ± 610 |
| yFTSTE [SRC_522/A1] | 1120 ± 380 |
| yNMYPQ [STAT5B_740/A1] | 249 ± 480 |
| yDYESR [SRC_93/A1] | 402 ± 310 |
| yVTPIG [STAP2_310/A1] | 3250 ± 400 |
| yYKAQT [SYK_525/A1] | 1650 ± 380 |
| yESPYA [SYK_348/A1] | 5070 ± 670 |
| ySFPKP [SYK_296/A1] | 2130 ± 660 |
| yENQDV [STAP2_322/A1] | 20600 ± 1100 |

| Binder | GRB2 complex binding differential signal |
| --- | --- |
| yIKTEL [STAT1_701/A1] | 693 ± 400 |
| yVKPQI [STAT5A_694/A1] | 3000 ± 660 |
| yLKHRL [STAT2_690/A1] | 307 ± 270 |
| yGRFTI [SRC_439/A1] | 435 ± 370 |
| ySRVQY [BCAR3_212/A1] | 749 ± 390 |
| yPQNPD [STAT5B_743/A1] | 514 ± 360 |
| yESFLE [STAP2_22/A1] | 703 ± 240 |
| yTEGAE [TBB6_Y106/A1] | 514 ± 290 |
| ySKYYT [STAT5B_679/A1] | 792 ± 300 |
| yADPEE [SYK_352/A1] | 459 ± 440 |
| yVPSVF [STAT4_693/A1] | 1050 ± 480 |
| yDVPRE [BCAR1_387/A1] | 943 ± 340 |
| ySPSSS [SRMS_380/A1] | 579 ± 470 |
| yTMCPE [TENC1_770/A1] | 390 ± 350 |
| yEKVLG [STAP2_250/A1] | 1100 ± 520 |
| yATQLQ [STAT5A_90/A1] | 1720 ± 790 |

Same assay, conditions: T47D

| Binder | GRB2 complex binding differential signal |
| --- | --- |
| yLKTKF [STAT3_705/A1] | 954 ± 900 |
| yAVPPP [BCAR1_410/A1] | 2320 ± 990 |
| yAQVQR [TENC1_483/A1] | 206 ± 850 |
| yTSSSG [TEC_519/A1] | 1470 ± 930 |
| yMDQAP [STAT5B_725/A1] | 414 ± 1200 |
| yEPELA [SYK_323/A1] | 715 ± 1100 |
| yKAQTH [SYK_526/A1] | 958 ± 890 |
| yYKFSS [SYK_546/A1] | 1280 ± 850 |
| yQPGEN [SRC_530/A1] | 394 ± 1100 |
| yFTSTE [SRC_522/A1] | 1110 ± 1100 |
| yNMYPQ [STAT5B_740/A1] | -1200 ± 1400 |
| yDYESR [SRC_93/A1] | 517 ± 1000 |
| yVTPIG [STAP2_310/A1] | 4510 ± 1200 |
| yYKAQT [SYK_525/A1] | 1960 ± 1300 |
| yESPYA [SYK_348/A1] | 3470 ± 1400 |
| ySFPKP [SYK_296/A1] | 1610 ± 1100 |

| Binder | GRB2 complex binding differential signal |
| --- | --- |
| yENQDV [STAP2_322/A1] | 16100 ± 9900 |
| yIKTEL [STAT1_701/A1] | 495 ± 1300 |
| yVKPQI [STAT5A_694/A1] | 3250 ± 1500 |
| yLKHRL [STAT2_690/A1] | 912 ± 990 |
| yGRFTI [SRC_439/A1] | 562 ± 1200 |
| ySRVQY [BCAR3_212/A1] | 1370 ± 1100 |
| yPQNPD [STAT5B_743/A1] | 802 ± 1200 |
| yESFLE [STAP2_22/A1] | 533 ± 1100 |
| yTEGAE [TBB6_Y106/A1] | 83 ± 1100 |
| ySKYYT [STAT5B_679/A1] | 1740 ± 1000 |
| yVPSVF [STAT4_693/A1] | 2350 ± 1400 |
| yDVPRE [BCAR1_387/A1] | 334 ± 860 |
| ySPSSS [SRMS_380/A1] | 960 ± 1200 |
| yEKVLG [STAP2_250/A1] | 1690 ± 980 |
| yATQLQ [STAT5A_90/A1] | 1000 ± 1400 |
